# About 2,200 (0.71%) of roughly 310,000 compounds showed an effect of 50% or more. The effect is printed as a negative number. Some of the results follow.
# Target: human ether-à-go-go-related gene (hERG) potassium channel (human, UniProt Q12809)
# Assay: primary screen, population patch clamp on CHO cells stably expressing hERG
# Chain of human ether-à-go-go-related gene (hERG) potassium channel (Q12809 whole entry, looked up): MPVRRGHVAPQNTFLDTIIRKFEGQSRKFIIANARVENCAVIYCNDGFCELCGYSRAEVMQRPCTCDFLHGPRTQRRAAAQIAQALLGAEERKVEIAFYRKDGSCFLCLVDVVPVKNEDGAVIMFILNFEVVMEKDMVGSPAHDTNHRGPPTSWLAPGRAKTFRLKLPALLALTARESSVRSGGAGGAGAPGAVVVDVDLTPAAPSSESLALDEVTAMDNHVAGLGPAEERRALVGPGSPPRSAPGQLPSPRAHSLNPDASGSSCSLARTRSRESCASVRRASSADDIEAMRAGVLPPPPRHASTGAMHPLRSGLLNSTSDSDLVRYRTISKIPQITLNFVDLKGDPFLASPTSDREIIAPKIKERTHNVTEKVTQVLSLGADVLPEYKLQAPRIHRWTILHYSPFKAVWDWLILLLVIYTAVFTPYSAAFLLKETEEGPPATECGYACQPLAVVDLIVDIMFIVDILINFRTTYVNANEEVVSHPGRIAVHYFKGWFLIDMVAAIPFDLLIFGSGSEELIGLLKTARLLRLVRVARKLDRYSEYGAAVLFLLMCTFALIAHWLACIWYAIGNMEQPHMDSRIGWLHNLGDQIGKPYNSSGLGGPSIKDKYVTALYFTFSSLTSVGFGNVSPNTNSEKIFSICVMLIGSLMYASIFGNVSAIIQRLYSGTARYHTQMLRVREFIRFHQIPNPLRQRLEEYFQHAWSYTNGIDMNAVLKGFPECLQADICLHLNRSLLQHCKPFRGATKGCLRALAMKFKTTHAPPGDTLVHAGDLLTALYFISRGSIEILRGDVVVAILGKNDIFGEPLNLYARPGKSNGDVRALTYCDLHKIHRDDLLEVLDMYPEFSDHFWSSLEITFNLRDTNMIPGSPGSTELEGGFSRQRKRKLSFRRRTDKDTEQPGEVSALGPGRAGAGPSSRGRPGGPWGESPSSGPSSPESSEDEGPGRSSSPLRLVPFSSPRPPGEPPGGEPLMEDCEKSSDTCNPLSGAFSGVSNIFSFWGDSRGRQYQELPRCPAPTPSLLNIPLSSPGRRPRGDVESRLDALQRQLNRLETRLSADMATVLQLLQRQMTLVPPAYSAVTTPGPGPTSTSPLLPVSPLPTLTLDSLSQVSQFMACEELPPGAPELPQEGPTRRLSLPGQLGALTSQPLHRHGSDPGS
row,SMILES,"hERG current change (%, negative = inhibition) at 1uM [%]"
1,CCOC(=O)NCc1ccc2[nH]c(C)cc2c1,17.9
2,COc1ccccc1NC(=O)N1CCCC1C(=O)NCC1CCCO1 (stereo not drawn),1.56
3,COc1cc(Cl)c(C)cc1NC(=O)COC(=O)c1cc[n+]([O-])cc1,-5
4,O=S(=O)(Nc1cccc(F)c1)c1cccc2nsnc12,4.15
5,CC(=O)NCCn1c(SCc2ccccc2F)nc2ccccc2c1=O,5
6,OC1CCN(c2c3c(nc4cc(-c5ccc(Cl)cc5)nn24)CCC3)CC1,5.81
7,Cn1c(SCCOc2ccccc2Cl)nnc1-c1ccncc1,2.48
8,O=C(COc1ccc(Cl)cc1)NCCCn1ccnc1,-13.5
9,O=C(OCC(=O)c1ccc[nH]1)c1ccc(Br)cc1,11.4
10,CCOc1cc(C(=O)NCC(=O)N2CCC3(CC2)NCCc2[nH]cnc23)cc(OCC)c1OCC,13.1
11,CCN(CC)c1ccc(NC(=O)COC(=O)COc2ccccc2[N+](=O)[O-])cc1,13.1
12,CC(C)COc1ccc(Cc2c(O)[nH]c(=S)[nH]c2=O)cc1,13.9
13,Cc1ccc(SCC(=O)N(C)CC(=O)Nc2cccc(F)c2)c(C)c1,17.8
14,O=C(NCc1cccnc1)c1c(F)c(F)c(F)c(F)c1F,-6.52
15,O=C1CSC(c2ccccc2)N1c1nc(-c2ccc(Cl)cc2Cl)cs1 (stereo not drawn),-1.24
16,COc1ccc(C/C(N)=N/OC(=O)Cc2ccccc2)cc1,7.22
17,O=C(CCNC(=O)c1ccc([N+](=O)[O-])cc1)NC1CCCCCC1,-1.26
18,COC(=O)C1CCN(C(=O)CSc2nnc(-c3ccncc3)o2)CC1,-9.3
19,COc1ccc(N2CCN(C(=O)NCc3ccc(C)cc3)CC2)cc1,7.68
20,CC(=O)/C(=N/Nc1cccc(Cl)c1)N1CCOCC1.Cl,11.9
21,OCC1OC(n2cnc3c(NC4CCCCC4)ncnc32)C(O)C1O (stereo not drawn),8.99
22,COc1cc(C)c(NC(c2ccccc2)c2ccccc2)cc1OC,8.51
23,CN(C)c1ccc(CN(Cc2ccco2)C(=O)c2ccco2)cc1,3.64

row,SMILES,"hERG current change (%, negative = inhibition) at 1uM [%]"
1,CCC[C@@H](NS(=O)(=O)c1ccc(C)cc1)C(=O)Oc1ccc2c3c(c(=O)oc2c1)CCC3,7.25
2,NC(=O)c1ccc(F)cc1,14.1
3,NC(=O)C1CCN(C2CC(=O)N(Cc3cccs3)C2=O)CC1 (stereo not drawn),-0.395
4,O=C(CSc1ccc(Cl)cc1)Nc1ccccc1N1CCN(C(=O)c2ccc(Cl)cc2)CC1,16.7
5,Cc1cccc(C)c1NC(=O)CN(C)C(=O)C1CC1C (stereo not drawn),7.9
6,C[C@@H]1C[C@H]2[C@@H]3CCC4=CC(=O)C=C[C@]4(C)[C@@]3(F)[C@@H](O)C[C@]2(C)[C@@]1(O)C(=O)CO,6.89
7,CCOc1cc(C(=O)CSc2nnc(CNc3ccc(Cl)cc3)o2)ccc1NC(=O)CC,12
8,CCOc1ccc(S(=O)(=O)NCc2ccc3c(c2)OCO3)cc1,14.5
9,CCN(CC)CCNCC1C(=O)O[C@@H]2C[C@@]3(C)CCC[C@H](C)C3=C[C@H]12 (stereo partly drawn),-1.21
10,CCOC(=O)c1c(NC(=O)CSc2ncn[nH]2)sc(C(C)=O)c1C,0.398
11,COCCN(C(=O)CSc1nnc(C)n1-c1ccccc1)c1c(N)n(Cc2ccccc2)c(=O)[nH]c1=O,11.2
12,O=S1(=O)CCN(CCc2c[nH]c3ccccc23)CC1,11
13,O=C(CSc1nnc(-c2ccncc2)n1Cc1ccco1)Nc1ccccc1Cl,-7.09
14,CCOC(=O)CC1COc2ccccc2N1C(=O)c1cccc([N+](=O)[O-])c1 (stereo not drawn),6.41
15,CCC(=O)N1N=C(c2ccc(NS(=O)(=O)CC)cc2)CC1c1ccc(C)cc1 (stereo not drawn),6.3
16,O=C(CCN1C(=O)c2ccccc2C1=O)Nc1ccc(S(=O)(=O)N2CCOCC2)cc1,2.33
17,Cc1ccc2nc(SCC(=O)c3ccc4c(c3)OCO4)[nH]c2c1,5.16
18,COc1cccc(-c2noc(-c3ccc4c(c3)OCO4)n2)c1,8.74
19,Cn1c(N2CCN(S(=O)(=O)c3ccc(Cl)cc3)CC2)nc2ccccc21,-23.2
20,COC(=O)c1c(C)[nH]c(C(=O)/C=C/c2cccc(Cl)c2)c1C,10.1
21,Cc1cccc(OCC(=O)NCC(=O)n2nc(C)cc2C)c1,12.5
22,CCOC(=O)C(Cc1ccc(NC(C)=O)cc1)N1C(=O)c2ccccc2C1=O (stereo not drawn),4.95
23,O=C(NCc1n[nH]c(=S)n1-c1ccc([N+](=O)[O-])cc1)c1ccc(S(=O)(=O)N2CCOCC2)cc1,9.68

row,SMILES,"hERG current change (%, negative = inhibition) at 1uM [%]"
1,CC(CCc1ccccc1)NC(=O)c1cccs1 (stereo not drawn),-2.05
2,Cc1ccccc1NC(=O)c1c(-c2ccccc2)noc1C,11.4
3,CCN(C1CCS(=O)(=O)C1)S(=O)(=O)c1cccs1 (stereo not drawn),18.5
4,CCc1ccc(NC(=O)N(CCCOC(C)C)C2CCN(C(C)=O)CC2)cc1,-6.37
5,COc1ccccc1C/C(N)=N/OC(=O)c1ccc2c(c1)OCO2,20.9
6,Cc1nn2c(nc1=O)SCC(c1ccccc1)=N2,3.52
7,O=C1CSC(=S)N1c1ccc(F)cc1,16.4
8,CC(=O)Nc1ccc(N2C(=O)CC(Sc3nc(C)cc(C)n3)C2=O)cc1 (stereo not drawn),12.4
9,O=C(c1ccc(NS(=O)(=O)c2ccccc2)cc1)N1CCCC1,7.69
10,Cc1ccc(-c2cc(-c3ccccc3Cl)c(C#N)c(N)n2)o1,8.84
11,S=c1[nH]ccn1-c1ccccc1Cl,16.8
12,COc1ccc2nc(C)cc(SCC(=O)OC(C)C)c2c1,18.6
13,COc1cccc(C2=CC(c3ccc(OC)c(OC)c3)NC(=S)N2)c1 (stereo not drawn),10.2
14,CCCOC(=O)CSc1nc(N)c(C#N)c(CC)c1C#N,2.28
15,COc1cc(N)c(Cl)cc1Cl,10.4
16,COc1cccc(CNS(=O)(=O)c2ccc3c(c2)N(C(C)=O)CCS3)c1,6.26
17,O=C(COC(=O)C1CCCN1C(=O)c1cccs1)Nc1ccc2c(c1)OCO2 (stereo not drawn),2.68
18,O=C(/C=C/c1ccco1)Nc1ccc(Cl)c(S(=O)(=O)N2CCOCC2)c1,7.91
19,Cc1c(C(=O)OCCOc2ccccc2)[nH]c2c1C(=O)CCC2,3.02
20,COC(=O)c1ccc(NC(=O)CCN2C(=O)C3CC=CCC3C2=O)cc1 (stereo not drawn),3.77
21,O=C(COC(=O)Cc1c[nH]c2ccccc12)NCCc1ccccc1,8.04
22,Cc1nc2sc(-c3ccccc3)cc2c(=O)n1-n1cccc1,7.64
23,Cc1ccc(NC(=S)NC(=O)C2CCCC2)cc1C,13.3

row,SMILES,"hERG current change (%, negative = inhibition) at 1uM [%]"
1,O=C1/C(=N\S(=O)(=O)c2cccs2)C([n+]2ccc(CCCc3ccccc3)cc2)=C([O-])c2ccccc21,-12.5
2,COc1ccccc1C1CCN(Cc2cccc3ccccc23)CC1,2.31
3,C=C1C(=O)C=C[C@]2(C)C[C@@H]3OC(=O)[C@](C)(O)[C@H]3C[C@@H]12,8.44
4,CN(CCNC(=O)CCCOc1cc(=O)n(C)c2ccccc12)Cc1ccccc1,4.44
5,COc1ccc(-n2cnc3cc(C(=O)N4CCC5(CC4)OCCO5)ccc32)cc1,-2.2
6,CCC(C)NC(=O)c1c(N)n(/N=C/c2cccnc2)c2nc3ccccc3nc12 (stereo not drawn),12.2
7,O=C(NCC(=O)N(c1ccc2c(c1)OCO2)C(C(=O)NC1CCCC1)c1cccs1)c1ccco1 (stereo not drawn),5.66
8,CC(=O)C1=C(C)NC(SCC(N)=O)=C(C#N)C1c1ccco1 (stereo not drawn),18.3
9,CCOC(=O)c1cc2n(n1)C(C(F)(F)C(F)(F)F)CC(C)N2 (stereo not drawn),8.84
10,CSCC[C@H](NC(=O)[C@@H]1Cc2ccccc2CN1)C(=O)Nc1cccc(C)c1,-3.94
11,Cc1ccc(N2CC(NC(=O)C3CC3)CC2=O)cc1 (stereo not drawn),-12.4
12,COC(=O)C1=C(C(=O)OC)[C@@H]2N(Cc3ccccc3)c3ccccc3[C@@]23C[C@@H](C(=O)OC)N(C(=O)NC2CCCCC2)C3=N1,6.65
13,Cc1ccc(C(=O)N/C(=C\c2cn(S(=O)(=O)N(C)C)c3ccccc23)C(=O)NCCCN2CCOCC2)cc1,6.78
14,CCCS(=O)(=O)N1CCCC(C(=O)NCCN(C)Cc2ccccc2)C1 (stereo not drawn),3.8
15,CCOc1ccc(-n2c(=O)[nH]cc(C(=O)Nc3ccc(OC)c(OC)c3)c2=O)cc1,12.5
16,CCN1CCn2c3c(c4cccc(C)c42)CCCC31.Cl (stereo not drawn),6.92
17,CCc1c(C)sc(NC(=O)OC)c1C(=O)N1CCCCC1,9.16
18,COC(=O)[C@H](C)NC(=O)Nc1ccc(OC)cc1OC,-2.62
19,COC(=O)c1ccccc1NC(=O)NCc1ccccn1,4.2
20,CSc1nc(Cl)cc(Nc2ccc(O)cc2)n1,-3.88
21,CC1Cc2ccccc2N1C(=O)c1ccc2nccnc2c1 (stereo not drawn),3.72
